Results reported in PubChem BioAssay (NCI).
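These data come from cells grown in 96-well plates and exposed to compound for 48 hours at five concentrations. GI50 marks 50% less growth. TGI: total growth inhibition.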

tested on: NCI-H322M lung; test: DTP human tumour cell line panel, 48 h

Row | Structure (SMILES) | GI50 [µM] | TGI [µM]
1 | O=C1Nc2cc(OC(F)(F)F)ccc2Oc2ccc(-c3ccnc(N4CC[C@H](O)C4)c3)cc21 | 0.0795 | 14
2 | Nc1nc(N)c2c(n1)NC(c1ccc(C(F)(F)F)cc1)CC(c1ccc(Nc3nc(NCCO)nc(Nc4ccc(Cl)cc4)n3)cc1)=N2 (stereo not given) | 1.66 | 3.06
3 | C[C@]12CC[C@H](O)C[C@@H]1CC[C@@H]1[C@@H]2CC[C@@]2(C)[C@H]1CC[C@@H]2[C@](C)(O)CCc1ccc(F)cc1 | 10.7 | 25.5
4 | Cc1nn(-c2ccccc2)cc1/C=N/Nc1nc(Nc2ccccc2)nc(Nc2ccc(S(N)(=O)=O)cc2)n1 | 2.44 | 5.98
5 | CS(=O)(=O)Nc1cc(-c2ccc3ncc(C#N)c(NCc4ccccc4)c3c2)cnc1Cl | 0.402 | 7.9
